# Measurements taken from the supplement of paper PMC3334620.
# Whole data set: some 33,000 sequences, median “E-score (-0.5 to 0.5)” near -0.032, cut for the highest 2% near 0.36. This is one part of the list.
# Molecular target: T1, Sko1 (UniProt Q02100)
# T1 sequence: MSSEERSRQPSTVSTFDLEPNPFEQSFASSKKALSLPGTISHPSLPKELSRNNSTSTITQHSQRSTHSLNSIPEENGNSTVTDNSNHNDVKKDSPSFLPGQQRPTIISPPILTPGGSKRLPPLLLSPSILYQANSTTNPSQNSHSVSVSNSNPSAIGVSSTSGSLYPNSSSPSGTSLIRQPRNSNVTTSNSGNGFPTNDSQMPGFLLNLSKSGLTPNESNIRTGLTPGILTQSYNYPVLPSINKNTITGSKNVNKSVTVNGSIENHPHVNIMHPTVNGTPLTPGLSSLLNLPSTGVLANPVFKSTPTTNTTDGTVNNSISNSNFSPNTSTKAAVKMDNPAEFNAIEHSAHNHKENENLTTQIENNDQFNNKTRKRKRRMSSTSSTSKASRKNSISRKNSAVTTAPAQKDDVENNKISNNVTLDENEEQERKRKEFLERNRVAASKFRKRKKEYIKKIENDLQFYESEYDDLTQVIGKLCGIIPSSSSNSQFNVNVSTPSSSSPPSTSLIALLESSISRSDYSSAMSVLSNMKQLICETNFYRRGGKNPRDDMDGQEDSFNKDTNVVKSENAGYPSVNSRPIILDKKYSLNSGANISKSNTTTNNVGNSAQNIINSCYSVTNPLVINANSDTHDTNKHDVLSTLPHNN
# Test: PBM E-score (8-mer binding enrichment) (E-score (-0.5 to 0.5)); higher = stronger / more preferred TF binding; most listed sequences are background and not binding sites
# Settings: protein concentration: 200 nM; construct: GST-full length
# Method: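 Universal 'all 10-mer' protein binding microarrays (Agilent AMADID 015681) probed with GST-tagged S. cerevisiae TFs (full-length or DBD) made by in vitro transcription/translation (PURExpress), about 100-200 nM. Bound TF was detected with fluorescent anti-GST. Each ungapped 8-mer (which stands for itself and its reverse complement) is scored by the PBM enrichment score (E-score), a modified Wilcoxon-Mann-Whitney statistic from -0.5 to +0.5, computed with the Universal PBM Analysis Suite. Scale: above 0.35 generally sequence-specific binding.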
row,Sequence,PBM E-score
1,CTCTGGCA,-0.236
2,CTTTTACC,0.11
3,TAAGATAA,0.0619
4,CTGTTGTC,-0.0176
5,AATCAGCC,-0.108
6,TTCTTCAA,-1e-05
7,AGGGTACA,-0.068
8,ACAGGGTC,-0.166
9,ATCTTGAA,0.0356
10,GTTTATGA,0.214
11,CGTCTTAA,0.209
12,ACGGTAGT,-0.0209
13,AAGGTGTC,-0.0366
14,GCCCACAC,-0.0849
15,AATAGGGG,-0.0991
16,CGCAGGAG,-0.087
17,CTATGCTC,-0.139
18,ATTAGGGA,-0.118
19,AAACGCTG,0.00852
20,CTTCCTTC,-0.284
21,CATACTTC,0.073
22,AGAAAGAT,0.0566
23,GTAACCAC,0.0486
24,TGCGGCAA,0.0508
25,GCTGGCTA,-0.3

row,Sequence,PBM E-score
1,AAAACACG,0.284
2,ATATGTAG,0.0107
3,CCAGCGGG,-0.212
4,ATGCAGAA,0.228
5,AGCTTAAC,0.108
6,AGTTTTCC,-0.0135
7,GCAGTAAA,-0.0741
8,CCTTCTAA,-0.029
9,ATATCATG,0.0825
10,CGAATACA,0.0848
11,ATTATTAC,0.308
12,CATGAATG,0.1
13,ATGTGCAG,-0.0677
14,CCTAGGGC,-0.336
15,CACTTGTA,0.118
16,TTAGAAAA,0.0783
17,ACTTTTCG,0.181
18,CTGAGCTA,-0.00141
19,TAACTGAA,0.0502
20,GCAGTGCA,-0.179
21,ACCACGGA,-0.247
22,CACACAAA,0.114
23,GTGCGCGA,0.103
24,CAGTTCAC,-0.0413
25,AGAGGCAC,-0.136

row,Sequence,PBM E-score
1,ATATTGTG,0.0398
2,ATTAACAG,0.0259
3,GTCAGCTA,-0.0682
4,GTATGGCA,0.128
5,ATGCCACG,0.0587
6,CAGTATCA,0.0286
7,GACAGTCC,-0.239
8,ACGACAAG,-0.029
9,AAAGTGAC,0.224
10,CCTAGTCA,-0.192
11,CTTCGAGA,-0.0219
12,GTCAAAAA,0.247
13,GCTTGGCA,0.0666
14,TAAATATA,0.307
15,ACTGGCCT,-0.155
16,CGCTGATA,0.0496
17,ACGGCTGG,-0.389
18,CAGAGTAG,-0.152
19,ATGACATG,0.357
20,ACAGGCGG,-0.246
21,AGGTACGG,-0.27
22,ATGAACCA,0.134
23,ATCAGCAT,0.0822
24,AAAAGTTT,0.127
25,AAGTGGGC,0.043

row,Sequence,PBM E-score
1,ACGAGGAG,0.0533
2,CGACCTCA,0.0616
3,CCCTACGA,0.0951
4,CATGTGTC,0.1
5,CCCAGAGA,-0.134
6,AATATACC,0.0847
7,ACCATACC,-0.311
8,AGACTCGG,-0.305
9,ACTCCTAC,0.0364
10,GCATAAGC,0.0453
11,CTGCCCAC,-0.0529
12,ATACCAAG,0.102
13,ACGTCGAC,0.385
14,ACCACTCT,-0.169
15,CAACATTA,0.305
16,TGCGAGAA,-0.0362
17,CCTACTAA,-0.18
18,CGAGCCCG,-0.396
19,ACTTATCG,-0.196
20,CCGGTTCC,-0.26
21,CCGTGGAA,-0.0689
22,CCTGGCAG,-0.155
23,CCCTAACC,-0.178
24,TATGCTGA,0.222
25,ACTGCAAA,0.0484

row,Sequence,PBM E-score
1,AAGGAAGT,-0.193
2,ATCTTGTG,-0.00506
3,CCCCGGCC,-0.33
4,CATAACCG,-0.248
5,CGCCTCGA,-0.228
6,ATCCTCAG,-0.0982
7,AACAAAGC,0.19
8,AGTTTCAT,0.0561
9,ACGCAAAA,0.338
10,CCCCTACA,-0.184
11,GCAGCATA,-0.194
12,TACATTCA,0.0715
13,CCACCGCA,-0.187
14,CCTTCCGA,-0.184
15,GGTTTTAC,-0.11
16,TGACGACA,0.467
17,CCCGCGCA,-0.0135
18,TACAGACA,0.105
19,GCACTGGC,-0.199
20,AACGGTAG,-0.134
21,ATGCTTAC,-0.0592
22,GATCGTGC,0.016
23,CTTCGAAG,-0.208
24,GAAAAGCA,-0.104
25,CACCAGAC,0.0607

row,Sequence,PBM E-score
1,CCGCCGCC,-0.184
2,GCAAGCAA,-0.0211
3,AATTGGAG,-0.114
4,CAAATTTA,0.184
5,CATGCGAC,0.0353
6,ACTCGTCC,0.0764
7,GAGCACAA,-0.0865
8,GCGCGCGA,0.0725
9,ACAGATGT,-0.0192
10,ACTTGGAG,-0.203
11,AGTCGACT,0.213
12,ACTATGGC,-0.0461
13,AGGTTTGC,0.0181
14,GGTGCGCA,0.0886
15,ATTCGACG,0.107
16,ATACCCAC,-0.121
17,AGTGTGGA,-0.0206
18,TATTCAAA,0.134
19,GACGAAAC,0.289
20,ACATTCCC,-0.0869
21,GCTTCACC,-0.184
22,CTCATCAG,-0.0173
23,ATGTTTAG,0.0953
24,TCTCCCAA,-0.0838
25,CAGCGTGA,-0.0118

row,Sequence,PBM E-score
1,AGGACCGA,-0.108
2,AGGATTTA,0.0641
3,AGTGTCAT,0.231
4,AAGATAAA,0.262
5,AAGCGGTA,-0.00885
6,ACGCGAGG,0.0164
7,CCTCTATC,-0.203
8,ATGACACC,0.26
9,ACTCCTAG,-0.345
10,GGGGCTGA,-0.139
11,TCGGAACA,0.0966
12,AATGGACG,0.338
13,GAGCGTCC,-0.104
14,AGAGTCGC,-0.0763
15,AAGGGCCT,-0.329
16,GAAACCGC,-0.0581
17,AATGTTGG,0.014
18,ATTTAACG,0.215
19,CGTAGCCC,0.169
20,ACGTATCT,0.419
21,CCAATGCC,-0.239
22,ATCGATTA,0.183
